From the supplement of paper PMC3334620
The full ranking holds about 33,000 sequences; the median of “E-score (-0.5 to 0.5)” is about -0.041, and the highest 2% start at about 0.37. The list shows a part of the results.

These sequences were tested against T1, Ecm22 (UniProt Q05958) (assay: PBM E-score (8-mer binding enrichment) (E-score (-0.5 to 0.5)); higher = stronger / more preferred TF binding; most listed sequences are background and not binding sites). Settings: protein concentration: 200 nM; construct: GST-full length.
T1 sequence: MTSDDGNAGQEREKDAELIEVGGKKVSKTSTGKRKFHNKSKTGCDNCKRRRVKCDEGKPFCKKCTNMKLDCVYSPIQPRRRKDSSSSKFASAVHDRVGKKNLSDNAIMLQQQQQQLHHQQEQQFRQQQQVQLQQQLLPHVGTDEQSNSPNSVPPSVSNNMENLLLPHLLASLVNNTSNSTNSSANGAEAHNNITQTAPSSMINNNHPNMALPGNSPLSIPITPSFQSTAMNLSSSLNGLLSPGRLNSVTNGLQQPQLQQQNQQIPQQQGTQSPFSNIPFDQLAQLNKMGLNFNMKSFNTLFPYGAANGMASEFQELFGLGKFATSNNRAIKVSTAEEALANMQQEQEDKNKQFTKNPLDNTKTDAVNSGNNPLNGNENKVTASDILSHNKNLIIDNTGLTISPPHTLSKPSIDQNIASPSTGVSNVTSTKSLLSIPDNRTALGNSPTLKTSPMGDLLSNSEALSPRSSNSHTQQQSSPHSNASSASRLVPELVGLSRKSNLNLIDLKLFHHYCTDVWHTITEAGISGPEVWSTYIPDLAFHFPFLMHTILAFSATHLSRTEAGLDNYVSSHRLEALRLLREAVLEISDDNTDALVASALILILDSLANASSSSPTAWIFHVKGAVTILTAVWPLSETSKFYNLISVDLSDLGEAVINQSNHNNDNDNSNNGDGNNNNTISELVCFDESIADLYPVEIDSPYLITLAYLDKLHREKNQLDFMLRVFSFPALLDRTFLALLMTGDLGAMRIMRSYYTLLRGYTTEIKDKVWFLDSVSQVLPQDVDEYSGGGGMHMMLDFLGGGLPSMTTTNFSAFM
In short: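 Masliner-normalised scans of fluorescent anti-GST signal were the basis for scoring. That signal came from GST-tagged yeast transcription factors applied at about 100-200 nM to double-stranded universal all-10-mer Agilent arrays on fresh or once-stripped slides. Each ungapped eight-base word, pooled with its reverse complement, received an E-score from the Universal PBM Analysis Suite.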

Row | Sequence | PBM E-score
1 | CGTCCCCA | -0.228
2 | GGATTTGA | 0.12
3 | AATACGCC | -0.0676
4 | AAAGCACT | 0.0197
5 | CTCTGCAC | -0.0504
6 | CCGCTATC | 0.0478
7 | GACGGTTA | -0.224
8 | ACAAGGAT | -0.127
9 | GAATAATA | 0.136
10 | ACGGAACC | 0.218
11 | CTACGTAC | 0.27
12 | CTGGTGAA | -0.106
13 | CATTATCG | 0.147
14 | ATCGGTCA | 0.0929
15 | GGTATCAC | -0.101
16 | GGCATCAC | -0.0854
17 | ATACACAT | 0.0154
18 | GTACAGCA | 0.233
19 | ACAGATAC | 0.15
20 | AGGTTTTC | 0.199
21 | AATTCGGT | 0.216
22 | ACCTTAAA | -0.126

Row | Sequence | PBM E-score
23 | AGCCTAGG | -0.288
24 | GTCACCTA | -0.102
25 | GTCAGTCA | -0.193
26 | CTGTATAC | 0.207
27 | ACTTAATC | -0.0762
28 | ACGATTGC | 0.302
29 | GGGACCTA | 0.0747
30 | CGCACACG | -0.0118
31 | AGAGTCTA | 0.00529
32 | ATTTAAAA | -0.0732
33 | ATTGTGAC | -0.145
34 | GTCAAGAA | 0.0699
35 | CTGAGGGA | -0.0479
36 | GCAGTTTA | -0.0818
37 | GTACGCAA | 0.25
38 | CCCGGCAC | -0.159
39 | CCCAAGTA | -0.143
40 | CTAGCAGA | -0.0379
41 | AATCAAGG | 0.0121
42 | AGCACCGC | 0.118
43 | AGCTGAAG | -0.139
44 | GGAGTGAA | -0.0263

Row | Sequence | PBM E-score
45 | GTGTCGGA | 0.0575
46 | TCATTCAA | -0.0805
47 | AGGTGTTG | -0.119
48 | TAGAAGCA | -0.173
49 | ACCGCACC | 0.0901
50 | AACCATAA | -0.167
51 | CCCAAACC | -0.0875
52 | CAATAATA | -0.0222
53 | AAGTGGAA | -0.064
54 | CAGCCTTA | -0.323
55 | CGAACCTC | 0.146
56 | AACGGTGC | 0.27
57 | ACTGGGCC | -0.247
58 | ACGTCCCG | -0.0251
59 | CAAAATCG | 0.11
60 | GATTACCC | -0.215
61 | GATAGGCC | -0.0611
62 | CCTAAGGC | -0.359
63 | GACCCGAA | 0.0537
64 | GATTCGCA | 0.227
65 | ACCATGCA | -0.228
66 | CAATCATG | -0.0538

Row | Sequence | PBM E-score
67 | AGTTCTGG | -0.0431
68 | GCGAGACA | 0.161
69 | CAATCATC | -0.11
70 | AAGCCCAC | -0.0242
71 | CTTCGCCA | -0.169
72 | ACCGCCAT | -0.129
73 | ACAATGGC | -0.0717
74 | GTACTGAA | 0.248
75 | CTGGCCGA | 0.051
76 | ACGCGTCC | -0.0747
77 | AGCATTTA | 0.0779
78 | CTGGCAGC | -0.158
79 | CGGATCCC | 0.0138
80 | AGACTTGC | -0.104
81 | GGCTAATA | 0.065
82 | AGAAAGGG | -0.262
83 | CAAGCGCG | 0.0633
84 | AGGAGGTG | -0.298
85 | CGAGATCC | 0.2
86 | ACAAGCTG | 0.0253
